Drawing on the supplement of paper PMC4604168 (melanoma cell lines), this text covers cell count for eleven molecules.

The list shows a part of the results. Most values come without repeats; read them as rough.

Test in all cases: cell count relative to DMSO control; melanoma cells; higher = more viable cells
Common to all, as to settings: library dose: standard library concentration; 72 h

Experiment [1] deals with G361.
The test system of experiment [2] is IPC-298.
Experiment [3] has as its system IST-MEL1.
In experiment [4] the test system is LB2518-MEL.
In experiment [5] the test system is LOXIMVI.
Experiment [6] relates to MEL-HO.
Experiment [7] concerns MZ2-MEL.
Experiment [8] concerns MeWo.
The subject of experiment [9] is RPMI7951.
Experiment [10] relates to RVH-421.
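Further: cells treated in 1,536-well plates, then fixed and DAPI-stained, with nuclei counted from automated high-throughput microscope images.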

For the molecule `O=C(O)c1ccc(-c2c[nH]c3ncc(-c4ccccc4)cc23)cc1C1CCCC1` + CCN(CC)CCCCNc1ncc2cc(-c3cc(OC)cc(OC)c3)c(NC(=O)NC(C)(C)C)nc2n1 [PD173074] (first compound 0.8 µM, partner dose 0.5 µM), the cell count in experiment [1] amounted to 60.7%; in experiment [2], 91.7%; in experiment [3], 82.5%; in experiment [4], 105%; in [5] it was 80.6%; in [6] it was 66.9%. In addition, the cell count in experiment [7] was found to be 97.9%; in experiment [8], 76.5%; in [9], 91.2%; in [10], 94.2%.

As to `C[C@@H]1CCN(C(=O)CC#N)C[C@@H]1N(C)c1ncnc2[nH]ccc12` + Cc1cc([N+](=O)[O-])ccc1NS(=O)(=O)c1cc(Cl)ccc1Cl [FH535] (first compound 5 µM, partner dose 5 µM), the cell count in experiment [1] turned out to be 35.2%; in experiment [2] it was 54.3%; in experiment [3], 65.5%; in experiment [4], 88.1%; in [5], 58.2%; in experiment [6] it was 56.3%. Also, the cell count in [7] was 88.4%; in experiment [8] it was 99.2%; in [9] it was 88.1%; in [10], 67.6%.

`COc1cc(Nc2ncc(F)c(Nc3ccc4c(n3)NC(=O)C(C)(C)O4)n2)cc(OC)c1OC` [Tamatinib] + Oc1cc(-c2nc(-c3ccccc3)[nH]c2-c2ccncc2)ccc1Cl [L779450] (first compound 2 µM, partner dose 1 µM): the cell count in experiment [1] came out at 47.1%; in [2] it was 58.4%; in [3], 43.2%; in [4], 65.2%; in [5], 7.46%; in experiment [6], 61%. Also, the cell count in [7] stood at 64.9%; in experiment [8] it was 57.3%; in [9], 14.2%; in experiment [10], 73.4%.

On to `O=c1[nH]nc(Sc2ncc([N+](=O)[O-])s2)n1-c1ccc2c(c1)OCCO2` + O=C(O)c1ccc2c(c1)nc(Nc1cccc(Cl)c1)c1ccncc12 [CX4945] (first compound 1 µM, partner dose 2 µM), for which the cell count in experiment [1] was determined as 92%; in experiment [2], 70.7%; in [3], 75.3%; in experiment [4] it was 114%; in experiment [5], 72.6%; in [6] it was 59.4%. Besides, the cell count in experiment [7] stood at 81.4%; in experiment [8], 105%; in [9], 62.4%; in experiment [10], 81.7%.

For the molecule `O=c1[nH]nc(Sc2ncc([N+](=O)[O-])s2)n1-c1ccc2c(c1)OCCO2` + Cn1cncc1[C@@](N)(c1ccc(Cl)cc1)c1ccc2c(c1)c(-c1cccc(Cl)c1)cc(=O)n2C [tipifarnib] (first compound 1 µM, partner dose 0.05 µM), the cell count in experiment [1] is 82%; in experiment [2] it was 109%; in experiment [3], 76.8%; in [4], 84.2%; in [5], 96.9%; in [6], 109%. Also, the cell count stood at 112% in [7], 93.1% in experiment [8], 78.5% in [9] and 91.1% in experiment [10].

In the case of `O=c1[nH]nc(Sc2ncc([N+](=O)[O-])s2)n1-c1ccc2c(c1)OCCO2` + Cn1c(=O)n(-c2ccc(C(C)(C)C#N)cc2)c2c3cc(-c4cnc5ccccc5c4)ccc3ncc21 [NVP-BEZ235] (first compound 1 µM, partner dose 0.02 µM), the cell count was determined as 69.7% in experiment [1]; 72.8% in experiment [2]; 79.3% in experiment [3]; 90.3% in experiment [4]; 74.4% in experiment [5]; 77.1% in experiment [6]. Further, the cell count was 80% in experiment [7], 70.4% in experiment [8], 58.5% in experiment [9] and 95.6% in [10].

`O=c1[nH]nc(Sc2ncc([N+](=O)[O-])s2)n1-c1ccc2c(c1)OCCO2` + CC(C)CCN1c2nc(Nc3cc(F)c(O)c(F)c3)ncc2N(C)C(=O)C1C [BID1870] (first compound 1 µM, partner dose 1 µM): the cell count stood at 77.1% in experiment [1]; 94.8% in experiment [2]; 90.5% in [3]; 106% in [4]; 79.3% in [5]; 81% in [6]. In addition, the cell count in experiment [7] was determined as 115%; in experiment [8], 79.4%; in experiment [9] it was 73.5%; in experiment [10], 71.2%.

As for `O=C(O)c1ccc(-c2c[nH]c3ncc(-c4ccccc4)cc23)cc1C1CCCC1` + O=C1NC(=O)/C(=C/c2ccc(-c3ccc(F)cc3O)o2)S1 [AS252424] (first compound 0.8 µM, partner dose 5 µM), the cell count in experiment [1] was found to be 50.5%; in experiment [2], 77%; in [3], 69.6%; in experiment [4], 95%; in experiment [5], 89.4%; in experiment [6], 68.8%. For the same molecule, the cell count in [7] is 79.5%; in [8], 78.6%; in experiment [9] it was 76.7%; in [10] it was 76.2%.

Consider `C[C@@H]1CCN(C(=O)CC#N)C[C@@H]1N(C)c1ncnc2[nH]ccc12` + O=C(Nc1cccc(Cl)c1)Nc1ncc(CCNc2ncnc3ccsc23)s1 [SNS314] (first compound 5 µM, partner dose 0.004 µM), for which the cell count in experiment [1] came to 78.1%; in experiment [2], 104%; in experiment [3], 70.6%; in experiment [4], 88.4%; in experiment [5], 76.7%; in experiment [6] it was 87.3%. Besides, the cell count came to 92.9% in experiment [7], 84.5% in experiment [8], 64.8% in [9] and 75.8% in [10].

For `Cn1cncc1[C@@](N)(c1ccc(Cl)cc1)c1ccc2c(c1)c(-c1cccc(Cl)c1)cc(=O)n2C` [tipifarnib] + CCN(CC)CCCCNc1ncc2cc(-c3cc(OC)cc(OC)c3)c(NC(=O)NC(C)(C)C)nc2n1 [PD173074] (first compound 0.05 µM, partner dose 0.5 µM), the cell count in experiment [1] was 80.8%; in [2] it was 102%; in experiment [3], 91.8%; in experiment [4], 88.1%; in experiment [5], 86.1%; in experiment [6] it was 93.2%. The cell count worked out at 98.8% in [7], 85.6% in experiment [8], 71.7% in [9] and 76.8% in experiment [10].

For the molecule `O=C(Nc1cccc(Cl)c1)Nc1ncc(CCNc2ncnc3ccsc23)s1` + COc1ccc(COc2ccc(Cc3cnc(N)nc3N)cc2OC)cc1 [GW2580] (first compound 0.004 µM, partner dose 5 µM), the cell count in experiment [1] was found to be 86.1%; in experiment [2] it was 91.2%; in [3] it was 55.7%; in experiment [4], 89.3%; in experiment [5], 86.1%; in experiment [6] it was 72.1%. Moreover, the cell count came out at 97.6% in experiment [7], 91.5% in [8], 61.9% in experiment [9] and 82.4% in [10].
